Experimental data published in the supplement of paper PMC8728848.
The other results are listed elsewhere or left out.

Tests used:
Experiment in all cases: glycan array binding signal (z-score within array); higher = stronger binding
Conditions in all cases: glycan notation: IUPAC condensed, linker removed
[1] = target: Gal(b1-4)GlcNAc(b1-3)Gal(b1-4)GlcNAc(b1-3)Gal(b1-4)GlcNAc(b1-3)Gal(b1-4)GlcNAc(b1-2)Man(a1-3)[Gal(b1-4)GlcNAc(b1-3)Gal(b1-4)GlcNAc(b1-3)Gal(b1-4)GlcNAc(b1-3)Gal(b1-4)GlcNAc(b1-2)Man(a1-6)]Man(b1-4)GlcNAc(b1-4)[Fuc(a1-6)]GlcNAc
How it was run: (§1)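 Columns mapping to the same glycan were averaged after glycan names were converted to IUPAC-condensed notation. The data come from 3228 arrays in the Consortium for Functional Glycomics database, limited to those with an available protein sequence. Binding is reported as a within-array Z-score averaged across arrays of one protein sequence and across linkers.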

[2] = target: Gal(b1-4)GlcNAc(b1-3)Gal(b1-4)GlcNAc(b1-3)Gal(b1-4)GlcNAc(b1-3)Gal(b1-4)GlcNAc(b1-2)[Gal(b1-4)GlcNAc(b1-3)Gal(b1-4)GlcNAc(b1-3)Gal(b1-4)GlcNAc(b1-3)Gal(b1-4)GlcNAc(b1-6)]Man(a1-6)[Gal(b1-4)GlcNAc(b1-3)Gal(b1-4)GlcNAc(b1-3)Gal(b1-4)GlcNAc(b1-3)Gal(b1-4)GlcNAc(b1-2)Man(a1-3)]Man(b1-4)GlcNAc(b1-4)[Fuc(a1-6)]GlcNAc
How it was run: as §1

[3] = target: Gal(b1-4)GlcNAc(b1-3)Gal(b1-4)GlcNAc(b1-3)Gal(b1-4)GlcNAc(b1-3)Gal(b1-4)GlcNAc(b1-3)Gal(b1-4)GlcNAc(b1-2)Man(a1-3)[Gal(b1-4)GlcNAc(b1-3)Gal(b1-4)GlcNAc(b1-3)Gal(b1-4)GlcNAc(b1-3)Gal(b1-4)GlcNAc(b1-3)Gal(b1-4)GlcNAc(b1-2)Man(a1-6)]Man(b1-4)GlcNAc(b1-4)GlcNAc
How it was run: as §1

[4] = target: Gal(b1-4)GlcNAc(b1-3)Gal(b1-4)GlcNAc(b1-3)Gal(b1-4)GlcNAc(b1-3)Gal(b1-4)GlcNAc(b1-3)Gal(b1-4)GlcNAc(b1-2)Man(a1-3)[Gal(b1-4)GlcNAc(b1-3)Gal(b1-4)GlcNAc(b1-3)Gal(b1-4)GlcNAc(b1-3)Gal(b1-4)GlcNAc(b1-3)Gal(b1-4)GlcNAc(b1-2)Man(a1-6)]Man(b1-4)GlcNAc(b1-4)[Fuc(a1-6)]GlcNAc
How it was run: as §1

[5] = target: Gal(b1-4)GlcNAc(b1-3)Gal(b1-4)GlcNAc(b1-3)Gal(b1-4)GlcNAc(b1-3)Gal(b1-4)GlcNAc(b1-3)Gal(b1-4)GlcNAc(b1-2)[Gal(b1-4)GlcNAc(b1-3)Gal(b1-4)GlcNAc(b1-3)Gal(b1-4)GlcNAc(b1-3)Gal(b1-4)GlcNAc(b1-3)Gal(b1-4)GlcNAc(b1-6)]Man(a1-6)[Gal(b1-4)GlcNAc(b1-3)Gal(b1-4)GlcNAc(b1-3)Gal(b1-4)GlcNAc(b1-3)Gal(b1-4)GlcNAc(b1-3)Gal(b1-4)GlcNAc(b1-2)Man(a1-3)]Man(b1-4)GlcNAc(b1-4)[Fuc(a1-6)]GlcNAc
How it was run: as §1

[6] = target: Gal(b1-4)GlcNAc(b1-3)Gal(b1-4)GlcNAc(b1-3)Gal(b1-4)GlcNAc(b1-3)Gal(b1-4)GlcNAc(b1-3)Gal(b1-4)GlcNAc(b1-3)Gal(b1-4)GlcNAc(b1-2)Man(a1-3)[Gal(b1-4)GlcNAc(b1-3)Gal(b1-4)GlcNAc(b1-3)Gal(b1-4)GlcNAc(b1-3)Gal(b1-4)GlcNAc(b1-3)Gal(b1-4)GlcNAc(b1-3)Gal(b1-4)GlcNAc(b1-2)Man(a1-6)]Man(b1-4)GlcNAc(b1-4)GlcNAc
How it was run: as §1

[7] = target: Gal(b1-4)GlcNAc(b1-3)Gal(b1-4)GlcNAc(b1-3)GalNAc
How it was run: as §1

[8] = target: Gal(b1-4)GlcNAc(b1-3)Gal(b1-4)GlcNAc(b1-3)[Gal(b1-4)GlcNAc(b1-3)Gal(b1-4)GlcNAc(b1-6)]GalNAc
How it was run: as §1

[9] = target: Gal(b1-4)GlcNAc(b1-3)Gal(b1-4)GlcNAc(b1-6)[Gal(b1-3)]GalNAc
How it was run: as §1

[10] = target: Gal(b1-4)GlcNAc(b1-3)Gal(b1-4)[Fuc(a1-3)]GlcNAc(b1-3)Gal(b1-4)[Fuc(a1-3)]GlcNAc
How it was run: as §1

[11] = target: Gal(b1-4)GlcNAc(b1-3)GalNAc
How it was run: as §1

[12] = target: Gal(b1-4)GlcNAc(b1-3)[Fuc(a1-3)GlcNAc(b1-6)]Gal(b1-4)Glc
How it was run: as §1

[13] = target: Gal(b1-4)GlcNAc(b1-3)[Gal(b1-4)GlcNAc(b1-6)]Gal(b1-4)GlcNAc
How it was run: as §1

[14] = target: Gal(b1-4)GlcNAc(b1-3)[GlcNAc(b1-6)]Gal(b1-4)GlcNAc
How it was run: as §1

[15] = target: Gal(b1-4)GlcNAc(b1-6)Gal(b1-4)GlcNAc
How it was run: as §1

[16] = target: Gal(b1-4)GlcNAc(b1-6)GalNAc
How it was run: as §1

[17] = target: Gal(b1-4)GlcNAc(b1-6)[Gal(b1-3)]GalNAc
How it was run: as §1

[18] = target: Gal(b1-4)GlcNAc(b1-6)[Gal(b1-4)GlcNAc(b1-3)]GalNAc
How it was run: as §1

Gal(b1-4)GlcNAc6P = target: Gal(b1-4)GlcNAc6P
How it was run: as §1

Gal(b1-6)Gal = target: Gal(b1-6)Gal
How it was run: as §1

Gal3S(b1-3)GalNAc = target: Gal3S(b1-3)GalNAc
How it was run: as §1

Gal3S(b1-3)GlcNAc = target: Gal3S(b1-3)GlcNAc
How it was run: as §1

[19] = target: Gal3S(b1-3)[Fuc(a1-4)]GlcNAc
How it was run: as §1

B1: rEtpA (Escherichia coli) (protein)
chain: MNRIYKLKFDKRRNELVVVSEITTGVGNAKATGSVEGEKSPRRGVRAMALSLLSGMMIMAHPAMSANLPTGGQIVAGSGSIQTPSGNQMNIHQNSQNMVANWNSFDIGKGNTVQFDQPSSSAVALNRVVGGGESQIMGNLKANGQVFLVNPNGVLFGEGASVSTSGFVASTRDIKNDDFMNRRYTFSGGQKAGAAIVNQGELTTNAGGYIVLAADRVSNSGTIRTPGGKTVLAASERITLQLDNGGLMSVQVTGDVVNALVENRGLVSARDGQVYLTALGRGMLMNTVLNVSGVVEASGMHRQDGNIVLDGGDSGVVHLSGTLQADNASGQGGKVVVQGKNILLDKGSNITATGGQGGGEVYVGGGWQGKDSNIRNADKVVMQGGARIDVSATQQGNGGTAVLWSDSYTNFHGQISAKGGETGGNGGRVETSSHGNLQAFGTVSASAKKGKAGNWLLDSADITIVNGSNVSKTETTQSPPHTQFAPTAAGSAVSNTSINNRLNNGTSVTILTHRTRTGTAQGGNITVNAAINKSNGSDVNLTLQAGGNITVNNSITSTEGKLNVNLSGARTSNGSITISNNANITTNGGDITVGTTNTSNRVNISINNTTLNASNGNIQLTGTGTDSGILFAGNNRLTASNIALTGNSTSGNAINLTGTATLNATNNITLTGSSTSGNAINLKGNNTLTASNITLTGESTSGNAINLTDTTGTTTLNATNNITMQGTRVQIKHSNITAGNFALNATVAGSEISNTTLTATNNINLAAKTNSASSGVYLKDARITSTNGSITANGTATANGKATHLDGNVTLNASNGRIKLTGNGHGSASGILFAGNNRLTASNIALTGNSTSGNAINLTGTATLNATNDITLTGSSTSGNAINLTGTATLNATNNITLTGSSTSGNAINLKGNNTLTASNITLTGESTSGNAINLTDTTGTTTLNATNNITMQGTRVQIKHSNITAGNFALNATVAGSEISNTTLTATNNINLAAKTNSASSGVYLKDARITSTNGSITANGTATANGKATHLDGNVTLNASNGRIKLTGNGHGSASGILFAGNNRLTASNIALTGNSTSGNAINLTGTATLNATNDITLTGSSTSGNAINLTGTATLNATNNITLTGSSTSGNAINLKGNNTLTASNITLTGESTSGNAINLTDTTGTTTLNATNNITMQGTRVQIKHSNITAGNFALNATVAGSEISNTTLTATNNINLAAKTNSASSGVYLKDARITSTNGSITANGTATANGKATHLDGNVTLNASNGRIKLTGNGHGSASGILFAGNNRLTASNIALTGNSTSGNAINLTGTATLNATNDITLTGSSTSGNAINLTGTATLNATNNITLTGSSTSGNAINLKGNNTLTASNITLTGESTSGNAINLTDTTGTTTLNATNNITMQGTRVQIKHSNITAGNFALNATVAGSEISNTTLTATNNINLAAKTNSASSGVYLKDARITSTNGSITTNGTATANGKATHLDGNVTLNASNGRIKLTGNGHGSASGILFAGNNRLTASNIALTGNSTSGNAINLTGTATLNATNDITLTGSSTSGNAINLTGTATLNATNNITLTGSSTSGNAINLKGNNTLTASNITLTGESTSGNAINLTDTTGTTTLNATNNITMQGTRVQIKHSNITAGNFALNATVAGSEISNTTLTATNNINLAAKTNSASSGVYLKDARITSTNGSITANGTAPANDNATYLDGNVTLNASNGSIKLTGNGNGSTSGILFAGNNTLTASNITLTGNSEVYWQKLGPEQKLISEEDLNSAVDHHHHHH
glycan array binding signal (z-score) [1]: -0.319
glycan array binding signal (z-score) [2]: -0.355
glycan array binding signal (z-score) [3]: -0.398
glycan array binding signal (z-score) [4]: -0.42
glycan array binding signal (z-score) [5]: -0.351
glycan array binding signal (z-score) [6]: -0.221
glycan array binding signal (z-score) [7]: 0.548
glycan array binding signal (z-score) [8]: -0.249
glycan array binding signal (z-score) [9]: -0.384
glycan array binding signal (z-score) [10]: -0.365
glycan array binding signal (z-score) [11]: -0.234
glycan array binding signal (z-score) [12]: -0.328
glycan array binding signal (z-score) [13]: -0.282
glycan array binding signal (z-score) [14]: -0.382
glycan array binding signal (z-score) [15]: -0.317
glycan array binding signal (z-score) [16]: -0.21
glycan array binding signal (z-score) [17]: -0.386
glycan array binding signal (z-score) [18]: -0.27
glycan array binding signal (z-score) (Gal(b1-4)GlcNAc6P): -0.385
glycan array binding signal (z-score) (Gal(b1-6)Gal): 0.048
glycan array binding signal (z-score) (Gal3S(b1-3)GalNAc): 0.07
glycan array binding signal (z-score) (Gal3S(b1-3)GlcNAc): 0.314
glycan array binding signal (z-score) [19]: -0.228
